Measured values reported in the RNAGym collection of RNA variant scans (doi:10.1093/nar/gkz1192).
The source gives no read counts; variants with many changes may rest on few reads.

B1: CPEB3 Ribozyme (parent)
chain: UAACAGGGGGCCACAGCAGAAGCGUUCACGUCGCAGCCCCUGUCAGAUUCUGGUGAAUCUGCGAAUUCUGCUGUAUAUCUC

Variants of: B1
Test: self-cleavage, relative activity (ratio to wild type); higher = more cleavage; in vitro, sequencing
Outline: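 After error-prone PCR and barcoding, CPEB3 ribozyme mutant libraries were transcribed with T7 RNA polymerase at 37°C for 5 hours, then given 15 min with DNase I before an EDTA stop, and they cleaved during both steps. Reverse transcription with template switching preceded Illumina sequencing. Relative activity divides a variant's cleaved/total read fraction by the unmutated ribozyme's. At least 5 reads were required per variant, and three batches were averaged.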

For A13C A15G U51C G63A U66A U69C U72A, which self-cleavage is on record?
The self-cleavage was 0.36.

With A13C A15G U60C as the variant, how does the self-cleavage read?
The self-cleavage was 0.46.

For A13C A15U C37U U51C U80A, which self-cleavage is on record?
The self-cleavage was 0.34.

For A13C A18G A35G U54A A57C U76C, which self-cleavage is on record?
The self-cleavage was 0.99.

With A13C A18G U31A U69C as the variant, how does the self-cleavage read?
Its self-cleavage is 0.75.

For A13C A18U A28U U51A U69C A77G, which self-cleavage is on record?
Its self-cleavage is 0.27.

With A13C A18U A64U as the variant, how does the self-cleavage read?
The self-cleavage was 0.21.

With A13C A18U U76C as the variant, how does the self-cleavage read?
The self-cleavage was 0.06.

Which self-cleavage does the source give for A13C A20G A56G here?
Its self-cleavage is 0.46.

With A13C A20G A56U C62U as the variant, how does the self-cleavage read?
The self-cleavage was 0.23.

With A13C A20G U26C U31C A57G as the variant, how does the self-cleavage read?
The self-cleavage was 0.13.

For A13C A20G U76G, which self-cleavage is on record?
The self-cleavage was 0.89.

With A13C A21G U41A U51C A65G U66C as the variant, how does the self-cleavage read?
Its self-cleavage is 0.17.

Which self-cleavage does the source give for A13C A21G U41A U54C A65G here?
Its self-cleavage is 0.16.

Which self-cleavage does the source give for A13C A28G U48C U54C here?
The self-cleavage was 0.09.

With A13C A28U U72C A77U as the variant, how does the self-cleavage read?
The self-cleavage was 0.53.

Which self-cleavage does the source give for A13C A35G G46A A64G here?
The self-cleavage was 0.67.

For A13C A35G U49C A56G U67C A77G, which self-cleavage is on record?
Its self-cleavage is 0.07.

With A13C A45U A47U as the variant, how does the self-cleavage read?
Its self-cleavage is 0.17.

For A13C A45U C62A, which self-cleavage is on record?
The self-cleavage was 0.1.

With A13C A57G U60C U80C as the variant, how does the self-cleavage read?
Its self-cleavage is 0.23.

Which self-cleavage does the source give for A13C C14U U26C C68U here?
Its self-cleavage is 0.19.

For A13C C23G C34U, which self-cleavage is on record?
The self-cleavage was 0.07.

Which self-cleavage does the source give for A13C C34A A56U U66C C71U U72A U76C here?
The self-cleavage was 0.09.

For A13C C40U U48A U67A U74C, which self-cleavage is on record?
Its self-cleavage is 0.05.

Which self-cleavage does the source give for A13C G22C U48C C62U here?
Its self-cleavage is 0.25.

Which self-cleavage does the source give for A13C G22C U51A U60C here?
The self-cleavage was 0.11.

With A13C G24U C29G U31C A64G U74C as the variant, how does the self-cleavage read?
Its self-cleavage is 0.05.

Which self-cleavage does the source give for A13C G52A A56G here?
The self-cleavage was 1.06.

For A13C U25C A35G U67C, which self-cleavage is on record?
The self-cleavage was 0.16.

Which self-cleavage does the source give for A13C U25C A45G A47U A57G U72A here?
Its self-cleavage is 0.11.

For A13C U25C C62U U80C, which self-cleavage is on record?
Its self-cleavage is 0.11.

With A13C U25C G36A as the variant, how does the self-cleavage read?
The self-cleavage was 0.08.

With A13C U25C U41A U60C as the variant, how does the self-cleavage read?
Its self-cleavage is 0.16.

With A13C U25C U72C as the variant, how does the self-cleavage read?
Its self-cleavage is 0.48.

For A13C U26A A28G A45U U54C A64G, which self-cleavage is on record?
The self-cleavage was 0.09.

With A13C U26A A35G U43C U58A as the variant, how does the self-cleavage read?
Its self-cleavage is 0.06.

For A13C U31C A45G A65G G73A, which self-cleavage is on record?
The self-cleavage was 0.11.

Which self-cleavage does the source give for A13C U31C A47G U54C U60C A65G here?
The self-cleavage was 0.14.

For A13C U31C U58C, which self-cleavage is on record?
Its self-cleavage is 0.24.

With A13C U41A U51A U78A as the variant, how does the self-cleavage read?
The self-cleavage was 0.17.

For A13C U43C A45G A47U U58C U72A, which self-cleavage is on record?
The self-cleavage was 0.2.

For A13C U49C U72G, which self-cleavage is on record?
The self-cleavage was 0.17.

For A13G A15C A47G, which self-cleavage is on record?
Its self-cleavage is 0.36.

For A13G A15G A18G A35G C39G A57U, which self-cleavage is on record?
Its self-cleavage is 0.42.

With A13G A15G A45G as the variant, how does the self-cleavage read?
The self-cleavage was 0.18.

Which self-cleavage does the source give for A13G A15G A45U U78C here?
The self-cleavage was 0.43.

With A13G A15G A47G U49C A56U as the variant, how does the self-cleavage read?
Its self-cleavage is 0.24.

With A13G A15G C38U as the variant, how does the self-cleavage read?
Its self-cleavage is 0.22.

Which self-cleavage does the source give for A13G A15G G46U A56G U60C U80C here?
The self-cleavage was 0.16.

With A13G A15G G61A as the variant, how does the self-cleavage read?
The self-cleavage was 0.1.

For A13G A15G U25A, which self-cleavage is on record?
The self-cleavage was 0.62.

For A13G A15G U25C A45U U48A U80C, which self-cleavage is on record?
Its self-cleavage is 0.22.

With A13G A15G U31A A35U U51A as the variant, how does the self-cleavage read?
The self-cleavage was 0.41.

With A13G A15G U41C C71U as the variant, how does the self-cleavage read?
Its self-cleavage is 0.41.

Which self-cleavage does the source give for A13G A15G U43C here?
Its self-cleavage is 0.42.

Which self-cleavage does the source give for A13G A15G U54A U69C U80C here?
Its self-cleavage is 0.08.

Which self-cleavage does the source give for A13G A15G U54C here?
The self-cleavage was 0.39.

For A13G A15G U69C U74C, which self-cleavage is on record?
The self-cleavage was 0.28.

With A13G A15U G22C A45G U69C as the variant, how does the self-cleavage read?
Its self-cleavage is 0.13.

With A13G A15U U25A as the variant, how does the self-cleavage read?
Its self-cleavage is 0.12.

With A13G A15U U25C C34U U74C as the variant, how does the self-cleavage read?
Its self-cleavage is 0.09.

For A13G A15U U25C U26A U67C, which self-cleavage is on record?
The self-cleavage was 0.46.

Which self-cleavage does the source give for A13G A15U U51A A64G C71G U80C here?
The self-cleavage was 0.13.

Which self-cleavage does the source give for A13G A18C U25C G30C A45U U51A here?
The self-cleavage was 0.05.

For A13G A18C U49A A75U, which self-cleavage is on record?
The self-cleavage was 0.32.

For A13G A18C U60C, which self-cleavage is on record?
Its self-cleavage is 0.33.

For A13G A18G A21G, which self-cleavage is on record?
Its self-cleavage is 0.34.

With A13G A18G A35U U51C U76A as the variant, how does the self-cleavage read?
Its self-cleavage is 0.25.

Which self-cleavage does the source give for A13G A18G A47G U60C U72C here?
The self-cleavage was 0.

With A13G A18G C40U U67C U69C U72C A75G as the variant, how does the self-cleavage read?
The self-cleavage was 0.08.

With A13G A18G C50U A75G as the variant, how does the self-cleavage read?
The self-cleavage was 0.11.

Which self-cleavage does the source give for A13G A18G U43A U54A U69C U74C here?
Its self-cleavage is 0.84.

For A13G A18U A21U, which self-cleavage is on record?
Its self-cleavage is 0.27.

For A13G A18U A28G, which self-cleavage is on record?
The self-cleavage was 0.38.

With A13G A18U A47G A65U as the variant, how does the self-cleavage read?
The self-cleavage was 0.14.

For A13G A18U C29A U31C A35U, which self-cleavage is on record?
The self-cleavage was 0.08.

For A13G A18U U26C U31G A45U A75G, which self-cleavage is on record?
The self-cleavage was 0.22.

Which self-cleavage does the source give for A13G A18U U31C U80C here?
Its self-cleavage is 0.3.

Which self-cleavage does the source give for A13G A18U U54C G55U A57U U58A U67A here?
The self-cleavage was 0.09.

With A13G A20G A28G G36A as the variant, how does the self-cleavage read?
The self-cleavage was 0.18.

Which self-cleavage does the source give for A13G A20G A56G U66C here?
The self-cleavage was 0.25.

For A13G A20G C37U U60C A65C U72A, which self-cleavage is on record?
The self-cleavage was 0.1.

Which self-cleavage does the source give for A13G A20G G22A U54C A65G here?
The self-cleavage was 0.05.
